Test results: patent US20200325225A1 (Hoffmann-La Roche, published 2020)

Legend:
human FAP = target: T1, human FAP (human, UniProt Q12884 27-760, limits assumed); assay: SPR (Biacore T200, 25 C, HBS-EP), simultaneous binding; FAP-mu4-1BBL held on immobilized murine 4-1BB Fc(kih); human FAP 500 nM as second analyte, 30 uL/min, 90 s, dissociation 120 s
T1 construct: also called Human FAP (Analyte 2)

murine FAP = target: T2, murine FAP (murine, UniProt P97321 27-761, limits assumed); assay: SPR (Biacore T200, 25 C, HBS-EP), simultaneous binding; FAP-mu4-1BBL held on immobilized murine 4-1BB Fc(kih); murine FAP 500 nM as second analyte, 30 uL/min, 90 s, dissociation 120 s
T2 construct: also called mouse FAP; murine FAP (Analyte 2)

binding result (human FAP): binds
binding result (murine FAP): binds
B1: hybrid surrogate FAP-mu4-1BBL (Fc fusion)
heavy 1: RTEPRPALTITTSPNLGTRENNADQVTPVSHIGCPNTTQQGSPVFAKLLAKNQASLSNTTLNWHSQDGAGSSYLSQGLRYEEDKKELVVDSPGLYYVFLELKLSPTFTNTGHKVQGWVSLVLQAKPQVDDFDNLALTVELFPCSMENKLVDRSWSQLLLLKAGHRLSVGLRAYLHGAQDAYRDWELSYPNTTSFGLFLVKPDNPWEGGGGSGGGGSRTEPRPALTITTSPNLGTRENNADQVTPVSHIGCPNTTQQGSPVFAKLLAKNQASLSNTTLNWHSQDGAGSSYLSQGLRYEEDKKELVVDSPGLYYVFLELKLSPTFTNTGHKVQGWVSLVLQAKPQVDDFDNLALTVELFPCSMENKLVDRSWSQLLLLKAGHRLSVGLRAYLHGAQDAYRDWELSYPNTTSFGLFLVKPDNPWEGGGGSGGGGSRTVAAPSVFIFPPSDRKLKSGTASVVCLLNNFYPREAKVQWKVDNALQSGNSQESVTEQDSKDSTYSLSSTLTLSKADYEKHKVYACEVTHQGLSSPVTKSFNRGE[letters of human IgG1 Fc with changes left out]
chain: RTEPRPALTITTSPNLGTRENNADQVTPVSHIGCPNTTQQGSPVFAKLLAKNQASLSNTTLNWHSQDGAGSSYLSQGLRYEEDKKELVVDSPGLYYVFLELKLSPTFTNTGHKVQGWVSLVLQAKPQVDDFDNLALTVELFPCSMENKLVDRSWSQLLLLKAGHRLSVGLRAYLHGAQDAYRDWELSYPNTTSFGLFLVKPDNPWEGGGGSGGGGSASTKGPSVFPLAPSSKSTSGGTAALGCLVEDYFPEPVTVSWNSGALTSGVHTFPAVLQSSGLYSLSSVVTVPSSSLGTQTYICNVNHKPSNTKVDEKVEPKSC
heavy 2: EVQLLESGGGLVQPGGSLRLSCAASGFTFSSYAMSWVRQAPGKGLEWVSAIIGSGASTYYADSVKGRFTISRDNSKNTLYLQMNSLRAEDTAVYYCAKGWFGGFNYWGQGTLVTVSSASTKGPSVFPLAPSSKSTSGGTAALGCLVKDYFPEPVTVSWNSGALTSGVHTFPAVLQSSGLYSLSSVVTVPSSSLGTQTYICNVNHKPSNTKVDKKVEPKSCDKTHTCPPCPAPEAAGGPSVFLFPPKPKDTLMISRTPEVTCVVVDVSHEDPEVKFNWYVDGVEVHNAKTKPREEQYNSTYRVVSVLTVLHQDWLNGKEYKCKVSNKALGAPIEKTISKAKGQPREPQVCTLPPSRDELTKNQVSLSCAVKGFYPSDIAVEWESNGQPENNYKTTPPVLDSDGSFFLVSKLTVDKSRWQQGNVFSCSVMHEALHNHYTQKSLSLSPGK
light: EIVLTQSPGTLSLSPGERATLSCRASQSVTSSYLAWYQQKPGQAPRLLINVGSRRATGIPDRFSGSGSGTDFTLTISRLEPEDFAVYYCQQGIMLPPTFGQGTKVEIKRTVAAPSVFIFPPSDEQLKSGTASVVCLLNNFYPREAKVQWKVDNALQSGNSQESVTEQDSKDSTYSLSSTLTLSKADYEKHKVYACEVTHQGLSSPVTKSFNRGEC
notes: also called FAP-targeted mu4-1BBL construct
